From PubChem BioAssay AID493208 (National Center for Advancing Translational Sciences (NCATS), 2011)
Screen size: about 44,000 compounds; about 340 (0.77%) were called active. Another 5% or so got no clear call; they are omitted. Calls come from the whole dose curve; as a rule, active = well fitted inhibition curve with a large enough effect; inconclusive = small, poorly fitted or top-dose-only effect; inactive = flat fitted curve, though single readings scatter. Some of the results follow.

Assay: Acumen qHTS Assay for Inhibitors of the mTORC1 Signaling Pathway in MEF (Tsc2-/-, p53-/-) Cells: Sytravon;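 note: plate controls were DMSO for no effect and rapamycin for full effect; nearly all actives have a fitted effect of over 50% in size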
Details: phospho-rpS6 immunofluorescence/PI, 24 h; series mostly up to 38.3 µM; activity change, negative = inhibition: at the top concentration
How it was run: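 Tsc2-/-, p53-/- mouse embryonic fibroblasts (empty-vector line) exposed to compound 24 hrs at 37 C, fixed, immunostained for phospho-rpS6 and counterstained with propidium iodide. Acumen laser scanning gives % positive cells from Alexa 488/PI ratio, thresholded using 7.5 nM rapamycin; PI count gives viability.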

Activity change, negative = inhibition, inactive:
CCN(C(=O)Cn1nnc2sc(-c3ccccc3)cc2c1=O)c1cccc(C)c1 -2.78%
Cc1cc(NC(=O)CCNS(=O)(=O)c2ccc3c(c2)oc(=O)n3C)ccc1Br -15.9%
CCC(C)NC(=O)CSc1nc2n[nH]c(C)c2c(=N)n1-c1ccc(C)c(Cl)c1 (stereo not drawn) -9.76%
O=C(Nc1ccc(F)cc1F)c1cc2nc(-c3ccco3)cc(C(F)(F)Cl)n2n1 0.11%
O=C(Nc1nnc(S(=O)(=O)N2CCCc3ccccc32)s1)c1ccccc1 7.1%
COC(=O)c1cnn2c(C)c(Cc3c(C)cc(C)cc3C)c(C)nc12 12.7%
COc1ccc(NC(=O)CCn2c(=O)c3cccn3c3ccccc32)c(OC)c1 0.585%
CCC1CN(C(=O)Nc2cccc3c2CCCC3)c2ccccc2O1 (stereo not drawn) -1.09%
Cc1ccc2c(=O)cc(C(=O)Nc3ccc(S(=O)(=O)N(C)Cc4ccccc4)cc3)oc2c1 2.3%
Cc1ccc(CNC(=O)CN(c2ccc(C)cc2)S(=O)(=O)c2c(C)nn(C)c2C)cc1 -2.95%
CCN(CC)S(=O)(=O)c1ccc2c(c1)c(=O)c(C(=O)N1CCN(c3cccc(C)c3)C(C)C1)cn2C (stereo not drawn) -17.6%
CC(=O)c1ccc(NC(=O)CN(C)S(=O)(=O)c2cccc3nsnc23)cc1 13%
COc1ccccc1-c1cc2nc(C)c(CCC(=O)NCc3cccc(Cl)c3)c(C)n2n1 0.21%
CCCCn1c(C(C)NC(=O)c2ccccc2)nc2ccccc21 (stereo not drawn) 5.83%
COc1ccc(N2CC(NC(=O)C3CC3)CC2=O)cc1OC (stereo not drawn) -1.96%
CCOC(=O)C1CCCN(CCC(=O)Nc2cccc(C)c2)C1 (stereo not drawn) -2.22%
CCc1ccccc1NC(=O)c1cc(S(=O)(=O)N2CCCc3ccccc32)ccc1F 13%
Cc1c(C(=O)Nc2ccc(F)cc2)sc2nc[nH]c(=O)c12 0.04%
CC(C)CCn1c(=O)c2sccc2n2c(CCCC(=O)NCc3ccc(F)cc3)nnc12 -13.3%
Fc1cccc(-n2ncc3c2ncn2nc(-c4ccccc4Cl)nc32)c1 5.39%
CCOc1ccc(N(C)C(CNS(=O)(=O)c2ccccc2)c2ccccc2)cc1 (stereo not drawn) -14.9%
O=C(COc1ccccc1)Nc1cccc(-c2cn3cccnc3n2)c1 -3.04%
Cc1cccc(N2CCN(C(=O)CCn3c(=O)c4cccn4c4cccnc43)CC2)c1C 2.32%
Cc1ccn2c(=O)c(C(=O)NC(C)c3ccccc3)c(O)nc2c1 (stereo not drawn) -11%
CCOc1ccccc1CNC(=O)c1cccn1-c1nnc(N2CCCCC2)s1 -12.5%
COc1ccccc1N1CCN(C(=O)c2cc(-c3ccccc3O)on2)CC1 8%
N#Cc1cccc(NC(=O)c2cc3c(s2)-c2ccc(Cl)cc2SC3)c1 -6.3%
COc1ccc(C2=C(Nc3ccc(C)c(C)c3)c3ccccc3C2=O)cc1 -3.48%
